Reference: PubChem BioAssay AID1347417 (National Center for Advancing Translational Sciences (NCATS), 2020)
The whole screen tested about 120,000 compounds, of which about 5,300 (4.4%) were called active. The shares of active, inactive and inconclusive entries below differ from those in the screen. The call rests on the fitted dose curve; in most records, active means well fitted inhibition curve with a large enough effect; inconclusive means small, poorly fitted or top-dose-only effect; inactive means no such curve, though single readings can be large or run the other way. Where the call is inconclusive, the potency comes from a doubtful curve fit.

assay: qHTS Primary assay for Inhibitors of Plasmodium falciparum Dd2 growth in vitro; further: nearly all actives have a fitted effect of over 65% in size;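 on activity, negative = inhibition: plate controls were DMSO vehicle for no effect and reference drug for full effect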; conditions: P. falciparum Dd2 growth, SYBR Green, 72 h; activity, negative = inhibition: at 28.9 µM (top of the series) unless noted; series mostly up to 28.9 µM
Procedure, shortened: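 Readout: SYBR Green fluorescence, 485 nm excitation, 535 nm emission, after ~16 h lysis at 37C. Before that, Dd2-infected red cells (2.5% hematocrit) grew 72 h with compound, 29 uM top final concentration.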
Potency means the concentration at half of the fitted maximal effect; tags describe the fitted curve by direction and shape.

SMILES | Potency | activity, negative = inhibition | outcome
COc1ccc(C(=O)N2CCC3(CC2)c2[nH]c4ccccc4c2CCN3C)c(OC)n1 | inconclusive: 3.16 µM [inhibitor, full curve] | – | –
N#Cc1ccc(C(=O)N2CCCCCNC(=O)[C@@H]3CCCC[C@@H]32)cc1 | – | inactive: 14.3% | –
CCCC[C@H](N)C(=O)N1CCC2(CC1)CC(=O)N(Cc1cc(F)cc(F)c1)C2 | – | inactive: -25.2% | –
O=C1Cc2c(-c3ccccc3)n[nH]c2CN1CC1CCOCC1 | inconclusive: 3.55 µM [inhibitor, partial curve] | – | –
CCn1ncc(N2CCC(NC(=O)c3cccs3)CC2)cc1=O | – | inactive: -8.17% | –
CCN1C(=O)C2(CCN(S(=O)(=O)CC)CC2)c2ccccc21 | inconclusive: 17.8 µM [inhibitor, single point] | – | –
Cc1noc(C)c1-c1cc2c(c(-c3ccccc3Oc3ccccc3)c1)C(=O)N(C)C2 | inconclusive: 5.62 µM [inhibitor, single point] | – | –
CN1CCN(C(=O)CCc2nc(C3CCCN3C(=O)NCCc3ccccc3)no2)CC1 (stereo not drawn) | – | inactive: -22.2% | –
COc1ccc(Nc2cnc3ccc(-c4cccc(CO)c4)nn23)cc1OC | inconclusive: 2.82 µM [inhibitor, single point] | – | –
O=C1c2cnc(-c3cccc(CO)c3)nc2OCCN1c1ccccc1 | inconclusive: 22.4 µM [inhibitor, single point] | – | –
COc1ccc(CN2CCC3(C2)C(=NC2CCCCC2)NC(=O)N3c2cccnc2)cc1 (stereo not drawn) | inconclusive: 0.891 µM [inhibitor, full curve, poor fit] | – | –
O=C1CC(c2noc(-c3ccc4c(c3)OCO4)n2)CN1c1ccc(Cl)cc1 (stereo not drawn) | – | inactive: 4.43% | –
Cc1ccccc1NC(=O)N1CCC(CCNC(=O)c2cc(F)ccc2F)CC1 | – | inactive: -4.83% | –
COc1cc(-c2onc(C)c2C(=O)NCCCSC)cc(OC)c1OC | inconclusive: 7.94 µM [inhibitor, partial curve, poor fit] | – | –
Cc1ccccc1NC(=O)C1CCc2nc(N3CCN(C(=O)C(C)C)CC3)sc2C1 (stereo not drawn) | inconclusive: 3.98 µM [inhibitor, full curve, poor fit] | – | –
O=C(C1CCOCC1)N1CC(CNc2ccccc2)C2(C1)CN(c1ccccc1)C2 (stereo not drawn) | inconclusive: 3.55 µM [inhibitor, single point] | – | –
CCN(CC)C(=O)c1sc2c(c1C)c(=O)n(Cc1ccccc1)c(=O)n2Cc1ccc(Cl)cc1 | inconclusive: 17.8 µM [inhibitor, single point] | – | –
O=C(CCC1CCCC1)N1CCC(c2nc(C3CCOCC3)no2)C1 (stereo not drawn) | – | – | inactive
CCOc1ccc2c(n1)CCN(C(=O)c1ccsc1)C2 | – | – | inactive
CCOCCCNC(=O)C(c1ccc(C)cc1)N(Cc1cccs1)C(=O)c1ccc(NC(C)=O)cc1 (stereo not drawn) | – | inactive: 1.96% | –
COc1ccccc1NC(=O)c1c(NC(=O)c2ccco2)sc2c1CCC(C(C)(C)C)C2 (stereo not drawn) | – | inactive: -2.21% | –
COc1ccc(N2C(=O)CSC23CCN(C(=O)Nc2ccccc2)CC3)cc1 | inconclusive: 3.55 µM [inhibitor, partial curve] | – | –

SMILES | Potency | activity, negative = inhibition | outcome
CC(C)c1ccc(NC(=O)c2cccc3c2C(=O)N(C2CCCCC2)C3)cc1 | inconclusive: 15.8 µM [inhibitor, single point] | – | –
COc1ccc(C(=O)NC2CCN(c3cc(C(F)(F)F)nc(C)n3)CC2)c(C)c1 | – | inactive: -2.88% | –
N#Cc1ccc(CN2CC[C@@H]3C(=O)NCCCCCCN(Cc4ccncc4)[C@@H]3C2)cc1 | inconclusive: 0.447 µM [inhibitor, full curve] | – | –
O=C(c1cccc(F)c1)N1CCC2(CC1)CC(N(Cc1ccc(F)cc1)C1CC1)CCO2 (stereo not drawn) | inconclusive: 17.8 µM [inhibitor, single point] | – | –
CNC(=O)[C@H]1C[C@H](Oc2ccccc2)CN1Cc1ccc(OC(C)C)cc1 | – | inactive: -12.1% | –
Cc1n[nH]c(C)c1CCC(=O)Nc1cccn2nc(C3CCC3)nc12 | – | inactive: -7.51% | –
O=C(NCC(c1cccnc1)N1CCc2ccccc2C1)C(=O)Nc1ccc(Cl)cc1 (stereo not drawn) | inconclusive: 17.8 µM [inhibitor, single point] | – | –
Cc1ccc(CN2C(=O)[C@@H]3C[C@@H](O)CN3C3(CN(CC4CC4)C3)C2=O)o1 | – | inactive: -4.68% [at 44.1 µM] | –
CC(C)(C)CC(=O)N[C@H]1C[C@@H](Cc2cc(COc3ccccc3)on2)C1(C)C | – | – | inactive [at 44.1 µM]
COCCCNC(=O)C(NC(=O)c1cccc(C)c1)C1CCN(C(=O)c2ccccc2)CC1 (stereo not drawn) | – | inactive: -18.3% | –
Cc1ccc(NC(=O)CSc2cn(CC(=O)N3CCCCCC3)c3ccccc23)cc1 | – | inactive: -2.26% | –
Cc1cccc(N2CCN(C(=O)c3cnn(-c4cccc(Cl)c4C)c3C3CCNCC3)CC2)c1C | active: 11.2 µM | – | –
COc1ccc(CN2C(=O)CO[C@H](c3ccc(NC(=O)c4ccc(F)cc4)cc3)[C@H]2CO)cc1 | inconclusive: 20 µM [inhibitor, single point] | – | –
COc1cccc(CN2CCC(N3C(=O)C4(CCCCC4)C3c3ccncc3)CC2)c1OC (stereo not drawn) | inconclusive: 8.91 µM [inhibitor, partial curve, poor fit] | – | –
Cc1noc(CN(C)C(=O)C2C3C(=O)N(Cc4ccc(C)c(C)c4)C[C@@]34C=C[C@@H]2O4)n1 (stereo partly drawn) | inconclusive: 0.708 µM [inhibitor, full curve] | – | –
Cc1ccc(C)c(CN2C(=O)c3ccccc3S(=O)(=O)c3ccc(C(=O)N4CCc5ccccc54)cc32)c1 | inconclusive: 5.01 µM [inhibitor, partial curve, poor fit] | – | –
Cc1ccc(OCC(=O)NCC(c2ccc(Cl)cc2)N2CCCCC2)cc1 (stereo not drawn) | inconclusive: 11.2 µM [inhibitor, partial curve] | – | –
O=C(Nc1cnc(-c2ccccc2)nc1)C1CCCCC1 | inconclusive: 11.2 µM [inhibitor, single point] | – | –
CCn1ccnc1CN(C)Cc1cn(-c2ccccc2C)nc1-c1ccc(OC)c(F)c1 | inconclusive: 12.6 µM [inhibitor, single point] | – | –
CCOC(=O)c1c(C)sc(-c2c(-c3cc(C)ccc3C)[nH]c3c2c(=O)n(C)c(=O)n3C)c1O | active: 10 µM | – | –
O=C(CCC[C@@H]1[C@H]2CCCN3CCC[C@@H](CN1C(=O)CCc1ccccc1)[C@@H]23)N1CCOCC1 | inconclusive: 20 µM [inhibitor, single point] | – | –
